Experimental data taken from PubChem BioAssay AID504937 (National Center for Advancing Translational Sciences (NCATS), 2011).
Values joined by “and” are separate entries in the source; they are usually repeats but may differ in a detail not shown here. Identical values can stand only once. The whole screen tested about 340,000 compounds, of which about 20 (0.006%) were called active. The shares of active, inactive and inconclusive entries below differ from those in the screen. Calls come from the whole dose curve; as a rule, active = well fitted inhibition curve with a large enough effect; inconclusive = small, poorly fitted or top-dose-only effect; inactive = no such curve, though single readings can be large or run the other way. Where the call is inconclusive, the potency comes from a doubtful curve fit.
Potency is the fitted concentration of half-maximal effect; tags give direction and shape of the fitted curve.

These compounds were tested against Sphingomyelin phosphodiesterase (Homo sapiens) (UniProt P17405) (assay: Inhibitors of Secretory Acid Sphingomyelinase (S-ASM): qHTS). Conditions: placental ASM, HMU-PC fluorogenic substrate (series up to 57.5 µM), 60 min; activity change, negative = inhibition: at the top concentration.
UniProt P17405, sequence (P17405 whole entry, looked up): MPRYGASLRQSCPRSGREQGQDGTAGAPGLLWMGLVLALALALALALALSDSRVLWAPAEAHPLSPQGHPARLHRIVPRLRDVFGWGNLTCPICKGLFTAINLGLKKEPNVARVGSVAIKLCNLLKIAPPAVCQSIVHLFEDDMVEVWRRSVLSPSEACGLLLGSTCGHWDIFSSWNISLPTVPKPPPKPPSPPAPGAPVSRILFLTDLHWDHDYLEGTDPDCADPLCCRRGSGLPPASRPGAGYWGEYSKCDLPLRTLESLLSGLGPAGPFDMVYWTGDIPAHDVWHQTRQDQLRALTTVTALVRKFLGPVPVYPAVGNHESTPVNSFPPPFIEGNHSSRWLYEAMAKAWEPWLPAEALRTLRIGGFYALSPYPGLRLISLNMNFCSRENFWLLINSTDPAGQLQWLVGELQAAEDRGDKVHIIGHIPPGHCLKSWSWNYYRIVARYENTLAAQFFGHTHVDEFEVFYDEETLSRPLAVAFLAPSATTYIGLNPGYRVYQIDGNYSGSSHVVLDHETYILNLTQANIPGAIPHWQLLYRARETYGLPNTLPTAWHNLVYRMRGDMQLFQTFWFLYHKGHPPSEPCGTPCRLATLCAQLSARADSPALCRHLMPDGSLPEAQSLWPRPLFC
Outline: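 Human placenta-derived ASM enzyme was preincubated with compound for 10 minutes at room temperature, then given fluorogenic substrate HMU-PC0 (9 uM final) for 60 minutes at 37 °C; a pH 10 stop preceded fluorescence reading at Ex 386/Em 447 nm.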
`CN(C)CCNc1ncnc2c1sc1nc(-c3ccccc3)c3c(c12)CCCC3` was tested, and the Potency was inconclusive: 79.4 µM [inhibitor, partial curve, poor fit].
`CCN(CC)c1ccc(S(=O)(=O)N2CCOCC2)cc1NC(=O)c1cc(=O)c2ccccc2o1` was tested, and the Potency was inconclusive: 31.6 µM [inhibitor, partial curve, poor fit].
In the case of `Cc1nn(C)cc1S(=O)(=O)Nc1ccc2c(c1)OCCO2`, the “activity change, negative = inhibition” value is reported as inactive: 2.25%.
`CC(C)(C)c1ccc(Cn2nnc3c(=O)[nH]c(C4CCCN(C(=O)Cc5cccs5)C4)nc32)cc1` (configuration not stated) was tested, and the Potency was inconclusive: 112 µM [inhibitor, single point].
With `COc1ccc(Sc2nnc(-c3ccccc3)cc2C#N)cc1` the Potency was inconclusive: 282 µM [inhibitor, partial curve, poor fit].
In the case of `COC(=O)Cn1c(=NC(=O)c2ccc(S(=O)(=O)N3CCOCC3)cc2)sc2cc(S(N)(=O)=O)ccc21`, the Potency is reported as inconclusive: 126 µM [inhibitor, partial curve, poor fit].
`COc1cc(C(=O)Nc2nc(-c3ccc(C)cc3)cs2)ccc1OCC(=O)N1CCOCC1` was tested, and the Potency was inconclusive: 100 µM [inhibitor, partial curve, poor fit].
For `CCOC(=O)c1ccc2[nH]c(C)c(C)c2c1`, the “activity change, negative = inhibition” value was inactive: -1.51%.
With `C[C@H](CO)N1C[C@H](C)[C@@H](CN(C)S(=O)(=O)c2ccc(F)cc2)Oc2c(NC(=O)Nc3ccc(C(F)(F)F)cc3)cccc2C1=O` the Potency was inconclusive: 79.4 µM [inhibitor, partial curve].
With `COc1cc(NC(=O)c2cc3nc(-c4ccccc4)cc(-c4ccccc4)n3n2)cc(OC)c1OC` the “activity change, negative = inhibition” value was inactive: -6.39%.
`CCCc1nnc2n1N=C(c1ccc(OC)c(OC)c1)CS2` was tested, and the “activity change, negative = inhibition” value was inactive: 3.68%.
With `Nc1cc(S(=O)(=O)c2ccc(O)c(N)c2)ccc1O` the “activity change, negative = inhibition” value was inactive: 1.7%.
In the case of `C(=N\Nc1nc2ccccc2[nH]1)/c1c[nH]c2ccccc12`, the Potency is reported as inconclusive: 89.1 µM [inhibitor, single point].
`Cc1cc(Nc2ccccc2)nn1C(=O)c1ccc([N+](=O)[O-])cc1` was tested, and the Potency was inconclusive: 89.1 µM [inhibitor, single point].
`Cc1ccc2c(c1)C1CC(C)(O2)N(c2cccc(C(=O)NC3CCN(Cc4ccccc4)CC3)c2)C(=O)N1` (configuration not stated) was tested, and the “activity change, negative = inhibition” value was inactive: 5.63%.
For `CS(=O)(=O)c1ccc2nc(NC(=O)C3CCCCC3)sc2c1`, the Potency was inconclusive: 355 µM [inhibitor, partial curve, poor fit].
With `O=C(COC(=O)c1n[nH]c2ccccc12)Nc1ccccc1F` the “activity change, negative = inhibition” value was inactive: -2.66%.
With `CCN(CC)CCn1c2c(c(SCC(=O)Nc3nc4ccc(C)cc4s3)nc1=O)CCC2` the “activity change, negative = inhibition” value was inactive: -7.11%.
For `O=C(NCCc1cccs1)C1CC(c2cccc(F)c2)=NO1` (configuration not stated), the “activity change, negative = inhibition” value was inactive: -0.886%.
With `CCOc1ncccc1C(=O)N1CCN(c2cc(Cl)ccc2C)CC1` the Potency was inconclusive: 79.4 µM [inhibitor, partial curve, poor fit].
For `O=C(Cn1ccc(C(F)(F)F)n1)N=Nc1c(O)[nH]c2ccc(Br)cc12`, the Potency was inconclusive: 100 µM [inhibitor, partial curve].
In the case of `CCOC(=O)NC(=O)/C(C#N)=N\Nc1ccc(Cl)cc1`, the Potency is reported as inconclusive: 398 µM [inhibitor, partial curve, poor fit].
In the case of `O=C(CN1N=C(c2ccccc2)CCC1=O)NCc1cccs1`, the “activity change, negative = inhibition” value is reported as inactive: 0.343%.
With `NC(=O)COC(=O)c1cc(-c2ccco2)nc2ccccc12` the “activity change, negative = inhibition” value was inactive: 466%.
For `CCCN1C(=O)/C(=N\OCC(=O)Nc2ccc(C(C)C)cc2)c2ccccc21`, the Potency was inconclusive: 200 µM [inhibitor, partial curve, poor fit].
With `COc1cc2nc(SCc3ccc(Cl)cc3Cl)n(Cc3cccs3)c(=N)c2cc1OC` the Potency was inconclusive: 112 µM [inhibitor, partial curve].
`Cn1c(O)c(N=NC(=O)c2cccc(S(=O)(=O)N3CCCCC3)c2)c2ccccc21` was tested, and the Potency was inconclusive: 251 µM [inhibitor, partial curve, poor fit].
`C/C(=N\N=C(/N)SC1CC(=O)N(c2ccc(Br)cc2)C1=O)c1cccs1` (configuration not stated) was tested, and the Potency was inconclusive: 89.1 µM [inhibitor, partial curve, poor fit].
With `CCCCCCCCCCOC(=O)Cn1c(COc2ccc(OC)cc2)[n+](C)c2ccccc21` the Potency was inconclusive: 79.4 µM [inhibitor, single point] and inconclusive: 89.1 µM [inhibitor, partial curve].
With `Cc1nc(C/C(=N\Nc2ccccc2)c2ccc(O)cc2O)cs1` the Potency was inconclusive: 316 µM [inhibitor, partial curve, poor fit].
In the case of `O=C(Nc1ccc2nc(-c3ccc(Br)o3)[nH]c2c1)c1cccs1`, the Potency is reported as inconclusive: 200 µM [inhibitor, partial curve, poor fit].
For `COc1cc2c(cc1OC)CN(C(=O)CCOc1ccccc1C)CC2`, the “activity change, negative = inhibition” value was inactive: -4.17%.
In the case of `CC(C)Sc1nsc2nc(=O)c(/C=C3\C=Nc4ccccc43)c(N)n12`, the Potency is reported as inconclusive: 31.6 µM [inhibitor, partial curve, poor fit].
In the case of `O=[N+]([O-])/C=C/c1cn(Cc2ccc(F)cc2)c2ccccc12`, the Potency is reported as inconclusive: 89.1 µM [inhibitor, partial curve, poor fit].
In the case of `CCOc1ccc(NC(=O)Nc2nc(SCC)ns2)cc1`, the Potency is reported as inconclusive: 200 µM [inhibitor, partial curve, poor fit].
In the case of `CCN(C(=S)NCc1ccccc1)c1cccc2ccccc12`, the Potency is reported as inconclusive: 89.1 µM [inhibitor, partial curve, poor fit].
With `COC(=O)N/N=C/c1cn(CCCOc2ccc(C)cc2)c2ccccc12` the Potency was inconclusive: 100 µM [inhibitor, single point].
In the case of `O=C(N/N=C/c1ccc(Sc2ccccn2)o1)c1cc2ccccc2cc1O`, the Potency is reported as inconclusive: 100 µM [inhibitor, single point].
In the case of `Cc1cc(C(=O)N/N=C/c2ccc(O)c([N+](=O)[O-])c2)n[nH]1`, the “activity change, negative = inhibition” value is reported as inactive: 2.51%.
In the case of `COc1ccc(C2=C(Nc3ccccc3)c3ccccc3C2=O)cc1`, the Potency is reported as inconclusive: 126 µM [inhibitor, partial curve, poor fit].
`CCc1ccc(NC(=O)CSc2nc3ccccc3c(=O)n2CCCC(=O)NCCCN2CCOCC2)cc1` was tested, and the “activity change, negative = inhibition” value was inactive: 0.561%.
For `Cc1ccc2c(c1)[C@H]1[C@H](CO2)[C@H](c2ccccc2)[C@]2(C)C(=O)Nc3ccccc3C(=O)N12`, the Potency was inconclusive: 178 µM [inhibitor, partial curve, poor fit].
In the case of `COc1ccc(/C=N/Nc2nc(Nc3ccccc3)nc(N3CCCCC3)n2)cc1OC`, the Potency is reported as inconclusive: 89.1 µM [inhibitor, single point].
`COc1ccc(Oc2nc(C)nc3c2oc2ccccc23)cc1` was tested, and the Potency was inconclusive: 100 µM [inhibitor, partial curve, poor fit].
For `Cc1ccc2nc(Nc3ccc4[nH]c(=O)[nH]c4c3)c(-n3nc(C)cc3C)nc2c1`, the Potency was inconclusive: 79.4 µM [inhibitor, partial curve, poor fit].
`Cc1ccc(C(=O)/C=C/c2ccc(-c3ccccc3[N+](=O)[O-])o2)cc1` was tested, and the Potency was inconclusive: 200 µM [inhibitor, partial curve, poor fit].
In the case of `CCC(=O)N1CCC2(CC1)Oc1ccc(Cl)cc1C(=O)C21CC(c2ccc(Cl)cc2)=NO1` (configuration not stated), the “activity change, negative = inhibition” value is reported as inactive: -8.11%.
For `CCOc1cc(C=NN=C2c3ccccc3-c3ccccc32)ccc1O`, the Potency was inconclusive: 112 µM [inhibitor, partial curve, poor fit].
`CCc1ccc(NC(=O)c2cccc(C(=O)Nc3ccc(CC)cc3)n2)cc1` was tested, and the Potency was inconclusive: 89.1 µM [inhibitor, partial curve, poor fit].
For `CC(=O)Nc1nnc(C)s1`, the “activity change, negative = inhibition” value was inactive: -0.653%.
`O=[N+]([O-])c1cc(C(F)(F)F)ccc1NCCc1c[nH]c2ccc(O)cc12` was tested, and the Potency was inconclusive: 63.1 µM [inhibitor, single point].
For `Cc1ccc(-c2ccnc3nc(Sc4ncc(C(F)(F)F)cc4Cl)nn23)cc1`, the Potency was inconclusive: 200 µM [inhibitor, partial curve, poor fit].
For `CCOC(=O)NCCc1c(C)nc2c(c(C)nn2C(C)(C)C)c1C`, the Potency was inconclusive: 112 µM [inhibitor, partial curve, poor fit].
`Cc1cc(C)n2nc(C)c(-c3ccccc3)c2n1` was tested, and the “activity change, negative = inhibition” value was inactive: 0.686%.
`COc1cc(C(=O)N/N=C/c2ccc(OC(=O)c3cccc(C)c3)cc2)ccc1O` was tested, and the Potency was inconclusive: 89.1 µM [inhibitor, single point].
For `CNC(=S)N/N=C/c1cn(CCOc2cccc(OC)c2)c2ccccc12`, the Potency was inconclusive: 79.4 µM [inhibitor, partial curve].
With `CCOC(=O)c1c(C)[nH]c(C(=O)C(C)Sc2ccc(Cl)cc2)c1C` (configuration not stated) the Potency was inconclusive: 100 µM [inhibitor, partial curve, poor fit].
For `C[C@H](CO)N1C[C@H](C)[C@@H](CN(C)C(=O)Nc2ccccc2)Oc2ccc(NC(=O)Nc3ccc(C(F)(F)F)cc3)cc2C1=O`, the Potency was inconclusive: 89.1 µM [inhibitor, partial curve].
With `CCc1n[nH]c2c1/C(=N\O)CC(c1ccccc1)C2` (configuration not stated) the Potency was inconclusive: 50.1 µM [inhibitor, partial curve, poor fit].
With `O=C(CNC(=O)c1ccc2c(c1)OCO2)N/N=C(Br)/C=C/c1ccccc1` the Potency was inconclusive: 56.2 µM [inhibitor, partial curve, poor fit].
In the case of `CCc1ccc(C(C)NC(=O)/C(C#N)=C\c2cn[nH]c2-c2ccccc2)cc1` (configuration not stated), the Potency is reported as inconclusive: 79.4 µM [inhibitor, single point].
In the case of `COc1ccc(/C=C2\SC(=S)N(CCCC(=O)Nc3cccc(C(=O)O)c3)C2=O)cc1OC`, the Potency is reported as inconclusive: 112 µM [inhibitor, partial curve, poor fit].
